Test results from PMC4336329 (PLoS ONE, 2015).
About 2,200 (0.71%) of roughly 310,000 compounds showed an effect of 50% or more. The effect is printed as a negative number. The list shows a part of the results.

Biological target: human ether-à-go-go-related gene (hERG) potassium channel (human, UniProt Q12809)
Assay: primary screen, population patch clamp on CHO cells stably expressing hERG

Chain of human ether-à-go-go-related gene (hERG) potassium channel (Q12809 whole entry, looked up): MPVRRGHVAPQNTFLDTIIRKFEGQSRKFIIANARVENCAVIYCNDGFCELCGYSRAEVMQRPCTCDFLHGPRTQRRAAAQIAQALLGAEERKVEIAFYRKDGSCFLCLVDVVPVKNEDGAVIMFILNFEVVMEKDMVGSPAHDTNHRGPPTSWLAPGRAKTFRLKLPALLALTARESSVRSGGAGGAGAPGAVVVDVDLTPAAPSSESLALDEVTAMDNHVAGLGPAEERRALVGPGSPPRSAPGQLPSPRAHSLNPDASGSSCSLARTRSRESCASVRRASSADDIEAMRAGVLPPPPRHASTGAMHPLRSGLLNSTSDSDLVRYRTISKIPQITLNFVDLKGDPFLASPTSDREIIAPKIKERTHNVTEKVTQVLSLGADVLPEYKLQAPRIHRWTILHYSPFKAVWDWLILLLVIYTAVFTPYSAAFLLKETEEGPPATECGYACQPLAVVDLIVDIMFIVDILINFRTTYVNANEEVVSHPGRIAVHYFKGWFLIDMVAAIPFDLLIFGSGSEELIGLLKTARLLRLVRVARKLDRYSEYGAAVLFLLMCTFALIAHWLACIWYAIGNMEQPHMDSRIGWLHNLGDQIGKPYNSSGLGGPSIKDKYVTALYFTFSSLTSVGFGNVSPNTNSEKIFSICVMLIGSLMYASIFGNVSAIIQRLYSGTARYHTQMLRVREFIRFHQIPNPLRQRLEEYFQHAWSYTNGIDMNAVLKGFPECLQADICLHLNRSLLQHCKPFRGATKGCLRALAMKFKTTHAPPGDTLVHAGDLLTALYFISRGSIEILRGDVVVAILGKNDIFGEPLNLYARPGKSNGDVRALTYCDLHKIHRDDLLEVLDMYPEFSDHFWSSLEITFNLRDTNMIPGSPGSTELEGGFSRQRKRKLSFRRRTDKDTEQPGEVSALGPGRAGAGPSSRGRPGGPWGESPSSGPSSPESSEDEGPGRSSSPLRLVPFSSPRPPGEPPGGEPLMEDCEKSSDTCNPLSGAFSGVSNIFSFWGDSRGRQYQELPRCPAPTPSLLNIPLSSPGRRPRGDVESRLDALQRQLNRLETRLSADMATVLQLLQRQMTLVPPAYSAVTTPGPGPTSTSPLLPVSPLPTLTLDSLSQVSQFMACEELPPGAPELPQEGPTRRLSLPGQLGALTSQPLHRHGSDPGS

Compared with COc1ccc(CN2CCNC(=O)C2CC(=O)N(Cc2nccn2C)C(C)C)c(OC)c1 (centres unmarked), CCOc1ccc(CN2CCNC(=O)C2CC(=O)NCCCn2ccnc2)cc1 (centres unmarked) is higher in “hERG current change (%, negative = inhibition) at 1uM” value: 0.692% for the first, 6.45% for the second.

Going from COc1cc(CNCCc2ccccc2F)ccc1OCc1ccc(Cl)nc1.Cl to COc1cccc(CNC(=O)c2ccc(CS(=O)c3ccccc3)o2)c1 (centres unmarked), the “hERG current change (%, negative = inhibition) at 1uM” value rises from -16.1% to 6.26%.

Compared with Cc1ccc(S(=O)(=O)NN=C2CCN(Cc3ccccc3)CC2)cc1, CC(=O)Nc1cc(C(=O)N2CCCC2)ccc1S(=O)(=O)c1ccc(C)cc1 is higher in “hERG current change (%, negative = inhibition) at 1uM” value: 5.35% for the first, 6.7% for the second.

Compared with O=C(CSc1ncccc1C(=O)O)NCc1ccc(F)cc1, O=C(Oc1ccc(Cl)c2cccnc12)c1ccco1 is lower in “hERG current change (%, negative = inhibition) at 1uM” value: 0.121% for the first, -3.58% for the second.

Compared with CCc1[nH]c(=S)c(C#N)c2c1CCCC2, CCCOC(=O)c1c(N)sc2c1CCC2 is higher in “hERG current change (%, negative = inhibition) at 1uM” value: 14.4% for the first, 15.5% for the second.

Compared with COc1cccc(C(=O)NCCC2=CCCCC2)c1, COc1cc(C(=O)NCC2CCCO2)cc(Br)c1OCc1ccccc1 (centres unmarked) is lower in “hERG current change (%, negative = inhibition) at 1uM” value: 9.87% for the first, 4.96% for the second.

First: CC1(C)SC(=S)N(NC(=O)Nc2ccccc2)C1N(O)C(=O)Nc1cccc2ccccc12 (centres unmarked)
Second: COC(=O)c1cn(C(=O)c2cccc3ccccc23)c2ccccc12
The “hERG current change (%, negative = inhibition) at 1uM” value of the first is lower: 9.13% for the first, 14.5% for the second.

Going from CN(C)C(CNC(=O)CCC(=O)c1ccc(Br)cc1)c1ccccc1 (centres unmarked) to COc1ccccc1/C=C/C(=O)NCC(=O)N/N=C/c1ccc(C(=O)O)cc1, the “hERG current change (%, negative = inhibition) at 1uM” value rises from 7.41% to 17.9%.

First: Cc1ccc(-n2ncc3c(NCCCn4ccnc4)ncnc32)c(C)c1
Second: Cc1ccc(-c2csc(NCCn3c(-c4ccncc4)nc4ccccc43)n2)cc1
The “hERG current change (%, negative = inhibition) at 1uM” value of the first is lower: -4.34% for the first, 10.8% for the second.

Compared with O=c1cc(CN2CCN(CCO)CC2)c2cc3c(cc2o1)CCC3, CCNC(=S)N1CCN(CCN2C(=O)c3cccc4cccc(c34)C2=O)CC1 is higher in “hERG current change (%, negative = inhibition) at 1uM” value: -5.45% for the first, 1.34% for the second.

Compared with CCOC(=O)c1sc(NC(=O)CSc2nc3c(c(-c4ccc(OC)cc4)c2C#N)CCCC3)c(C#N)c1C, CCCC(=O)Nc1nnc(S(=O)(=O)N(CC)c2ccc(OC)cc2)s1 is lower in “hERG current change (%, negative = inhibition) at 1uM” value: 31.6% for the first, 7.27% for the second.

Compared with C=CCOc1ccc(C2NC(=O)c3ccccc3O2)cc1OCC (centres unmarked), COc1ccc(/C=C2/SC(=S)N(Cc3ccccc3)C2=O)cc1O is higher in “hERG current change (%, negative = inhibition) at 1uM” value: 11.4% for the first, 12% for the second.

Compared with COc1ccc(CN(C)C2c3ccccc3-c3ccccc32)cc1, COc1cccc(/C=N/NC(=O)CN(C2=NS(=O)(=O)c3ccccc32)c2ccccc2)c1 is lower in “hERG current change (%, negative = inhibition) at 1uM” value: 9.64% for the first, 5.25% for the second.

First: CCc1ccc(-c2nc(SCC(=O)c3c(N)n(C4CC4)c(=O)[nH]c3=O)n[nH]2)cc1
Second: CC1CCCN(C(=O)CSc2n[nH]c(-c3cccs3)n2)C1 (centres unmarked)
The “hERG current change (%, negative = inhibition) at 1uM” value of the first is lower: 1.89% for the first, 12.2% for the second.

First: O=C(CCn1nc(-c2ccc(Cl)cc2)c2ccccc2c1=O)NN1CCOCC1
Second: Cc1nc2ccccc2c(=O)n1NC(=O)c1ccc(Cl)cc1
The “hERG current change (%, negative = inhibition) at 1uM” value of the first is lower: -3.68% for the first, 4.96% for the second.

Compared with Cn1c(SCC(=O)c2ccccc2)nnc1-c1cnccn1, CC(=O)C(Sc1nnnn1-c1ccc(O)cc1)c1ccccc1 (centres unmarked) is lower in “hERG current change (%, negative = inhibition) at 1uM” value: 3.2% for the first, 2.98% for the second.

First: CC(=O)N1c2ccccc2N(Cc2ccc([N+](=O)[O-])cc2)C(=O)C1(C)C
Second: Cc1ccc(C(=O)Oc2ccccc2N2C(=O)C3CCC(C)CC3C2=O)cc1 (centres unmarked)
The “hERG current change (%, negative = inhibition) at 1uM” value of the first is higher: 1.47% for the first, 0.627% for the second.

Going from CCOC(=O)c1cc(C)n(-n2cnnc2)c1C to Cc1cc(C(=O)CC#N)c(C)n1-c1ccc(OC(F)F)cc1, the “hERG current change (%, negative = inhibition) at 1uM” value rises from 2.64% to 6.21%.

First: CC(C)(C)NC(=O)c1ccc(COc2ccc(Cl)cc2Cl)o1
Second: CC(C)(C)OC(=O)N1CCC[C@H]1C(=O)NCc1ccc(Cl)cc1Cl
The “hERG current change (%, negative = inhibition) at 1uM” value of the first is higher: 18.1% for the first, 8.79% for the second.

Compared with COc1c2occc2cc2ccc(=O)oc12, COc1ccc(C(=O)NN(C)c2nc(-c3ccccc3)cc(C)c2S(C)(=O)=O)cc1 is lower in “hERG current change (%, negative = inhibition) at 1uM” value: 13.1% for the first, 9.6% for the second.

Compared with Cl.O=C(Cn1c(NCCO)nc2ccccc21)c1ccc(Cl)cc1Cl, Cc1onc(-c2ccccc2Cl)c1C(=O)N/N=C(\N)COc1ccc(Cl)cc1 is lower in “hERG current change (%, negative = inhibition) at 1uM” value: 8.38% for the first, -0.169% for the second.

First: Cc1cc(C)n2nc(S(=O)(=O)N(C)c3ccccc3)nc2n1
Second: O=S(=O)(c1cnc(Cl)c(Cl)c1)N1CCc2ccccc21
The “hERG current change (%, negative = inhibition) at 1uM” value of the first is lower: 7.79% for the first, 14.8% for the second.

First: CCCc1nnc(SCC(=O)Nc2ccc(OCC)cc2)n1N
Second: Cn1cnnc1SCC(=O)Nc1ccc2nc(SCc3ccccc3F)sc2c1
The “hERG current change (%, negative = inhibition) at 1uM” value of the first is lower: -3.13% for the first, 13.8% for the second.

Compared with CC(=O)OC1CCC2(/C=N/O)C(=CCC3C4CCC(=O)C4(C)CCC32)C1 (centres unmarked), O=C(NC1CCN(S(=O)(=O)c2cccc([N+](=O)[O-])c2)CC1)C1CCCCC1 is higher in “hERG current change (%, negative = inhibition) at 1uM” value: 10.6% for the first, 17.5% for the second.

Compared with CSc1ccc(NC(N)=S)cc1, Cc1ccc(NC(=S)N/N=C2\CCCCC2C)cc1 (centres unmarked) is lower in “hERG current change (%, negative = inhibition) at 1uM” value: 9.33% for the first, -11.7% for the second.

First: NS(=O)(=O)c1cccc(NC(=O)c2cncc(Br)c2)c1
Second: NC(=O)C[n+]1cccc(C(=O)Nc2ccccc2)c1.[I-]
The “hERG current change (%, negative = inhibition) at 1uM” value of the first is higher: 17.5% for the first, 13.6% for the second.

Going from COc1ccc(S(=O)(=O)N2CCOCC2)cc1C(=O)NCC(c1ccco1)N1CCCC1 (centres unmarked) to COc1ccccc1NS(=O)(=O)c1cc(NC(C)=O)ccc1N1CCCCC1, the “hERG current change (%, negative = inhibition) at 1uM” value falls from 15.1% to 5.07%.

Going from Cc1ccc(CNC(=O)CCS(=O)(=O)c2cc3c(cc2Cl)NC(=O)CO3)o1 to Cc1cc(NC(=O)CS(=O)(=O)c2cn(Cc3cccc(F)c3)c3ccccc23)no1, the “hERG current change (%, negative = inhibition) at 1uM” value rises from -0.206% to 8.45%.

Compared with Cn1c(/C(C#N)=C/Nc2ccccn2)nc2ccccc21, Cc1onc(-c2ccccc2)c1C(=O)N(C)CCc1ccccn1 is lower in “hERG current change (%, negative = inhibition) at 1uM” value: 6.54% for the first, 5.97% for the second.

Compared with CC(=O)c1ccc(NC(=O)C[n+]2cccc(C)c2)cc1.[Cl-], CC(/C=N/NC(=O)c1cccc(F)c1)=C\c1ccccc1 is higher in “hERG current change (%, negative = inhibition) at 1uM” value: 9.24% for the first, 13.8% for the second.

Compared with CCCOC(=O)C(=O)NNc1ccccc1, C/C(=N\NC(N)=S)c1ccccc1 is lower in “hERG current change (%, negative = inhibition) at 1uM” value: 11.1% for the first, 3.89% for the second.

Compared with CCC(C)(C)NC(=O)CN(Cc1cccs1)C(=O)CNS(=O)(=O)c1ccc(F)cc1, COc1ccc(OC)c(NS(=O)(=O)c2ccc(NC(=O)C3COc4ccccc4O3)cc2)c1 (centres unmarked) is higher in “hERG current change (%, negative = inhibition) at 1uM” value: 5.64% for the first, 8.14% for the second.

Compared with COc1ccc(NC(=O)Nc2ccc(C)cc2OC(F)F)cc1OC, COC(=O)[C@H](C)NC(=O)Nc1cccc(C)c1 is higher in “hERG current change (%, negative = inhibition) at 1uM” value: 7.51% for the first, 13.2% for the second.

Compared with O=C(Cn1ccc(NC(=O)OCc2ccccc2)nc1=O)NCc1ccc2c(c1)OCO2, COc1ccccc1-n1c(SCC(=O)NC2CCS(=O)(=O)C2)nc2ccccc2c1=O (centres unmarked) is lower in “hERG current change (%, negative = inhibition) at 1uM” value: 13.4% for the first, 7.29% for the second.

Going from O=C(NC(=S)Nn1cnnc1)c1ccccc1Cl to c1ccc(-c2cnc(-c3ccccc3)nc2)cc1, the “hERG current change (%, negative = inhibition) at 1uM” value falls from 14.6% to 2.59%.

First: O=C(c1ccc(Cl)c(S(=O)(=O)N2CCCCC2)c1)N1CCCCC1
Second: Cc1nn(-c2ccccc2)c2c1c(C)c(CCC(=O)N1CCOCC1)c(=O)n2C
The “hERG current change (%, negative = inhibition) at 1uM” value of the first is higher: 8.94% for the first, -0.489% for the second.

First: CN(C)c1nc(N)nc(CSc2nc3cc(Cl)ccc3o2)n1
Second: COCN(C#N)c1nc(N(C)C)nc(N(C)C)n1
The “hERG current change (%, negative = inhibition) at 1uM” value of the first is lower: 10.7% for the first, 11.2% for the second.

First: COCCNC(=O)C(C)N(c1ccc(Oc2ccccc2)cc1)S(C)(=O)=O (centres unmarked)
Second: CCC1CN(C(=O)N2CCC(C(=O)NCCc3ccccc3)CC2)c2ccccc2O1 (centres unmarked)
The “hERG current change (%, negative = inhibition) at 1uM” value of the first is higher: 9.25% for the first, 8.85% for the second.

First: CC(/C=N/n1c(-c2cc(C)[nH]n2)n[nH]c1=S)=C\c1ccco1
Second: CC(C)Oc1ncnc2c1[nH]c1ccccc12
The “hERG current change (%, negative = inhibition) at 1uM” value of the first is lower: 6.84% for the first, 11.9% for the second.

First: CN(Cc1ccccc1)C(=O)CN1CCN(C(c2ccccc2)c2ccccc2)CC1
Second: COC(=O)c1ccc(C23CC4(C2)[C@H](CN(Cc2cccnc2)[C@@H]4c2ccccc2)C3c2ccccc2)cc1 (some centres unmarked)
The “hERG current change (%, negative = inhibition) at 1uM” value of the first is lower: 4.62% for the first, 13% for the second.

Going from CCN(C(=O)COC(=O)c1cnc(C)cn1)C1CCS(=O)(=O)C1 (centres unmarked) to CCC(Sc1nc2sc(C(=O)OC)c(C)c2c(=O)n1N)C(=O)N(CC)CC (centres unmarked), the “hERG current change (%, negative = inhibition) at 1uM” value rises from -7.09% to 7.93%.

Compared with CC12C(=O)N(CCC(=O)O)C(=O)C1C1C=CC2C1 (centres unmarked), CCC1(C)NC(C(=O)O)Cc2c1[nH]c1ccccc21 (centres unmarked) is higher in “hERG current change (%, negative = inhibition) at 1uM” value: 8.26% for the first, 13.3% for the second.

Compared with O/N=C(/CCc1ccccc1)C1(O)CCCCC1, CCn1c(O)c(N=NC(=O)CNC(=O)/C=C/c2ccccc2)c2ccccc21 is lower in “hERG current change (%, negative = inhibition) at 1uM” value: 11.7% for the first, 5.65% for the second.

Compared with CCN(CC)CCCNC(=O)c1oc2ccc3c(c2c1C)C(O)CC(C)(C)O3 (centres unmarked), CC(=O)c1ccc(-c2ccc([C@H]3[C@H]4C=CC[C@@H](C)[C@@H]4C(=O)N3Cc3ccccc3)c(F)c2)cc1 is higher in “hERG current change (%, negative = inhibition) at 1uM” value: 8.18% for the first, 11.6% for the second.

COc1ccc(N=C2C(=Nc3ccc(OC)cc3)N(c3ccccc3)C(=S)N2C(=O)c2ccc(Cl)cc2)cc1 was tested, and the “hERG current change (%, negative = inhibition) at 1uM” value was 13.2%.
